Assay results from article PMC7819943, “Rice protein-binding microarrays: a tool to detect cis-acting elements near promoter regions in rice”.
The list shows a part of the results.

biological target: T1, OsWOX13 (Oryza sativa, UniProt Q5QMM3 1-267); assay: protein-binding microarray (RPBM); PBS, 2% BSA, 51.3 ng/ul salmon testes DNA, 50 uM zinc acetate, 200 nM TF, 25 C, 1 h; high values mean tight binding; conditions: protein: recombinant; tags: N-terminal polyhistidine and DsRed monomer fusion (pET32a); label: CyDye5-dUTP incorporated in the synthesized complementary strand; 3' TTTTT single-stranded linker to array surface; dsDNA, one strand shown
T1 sequence: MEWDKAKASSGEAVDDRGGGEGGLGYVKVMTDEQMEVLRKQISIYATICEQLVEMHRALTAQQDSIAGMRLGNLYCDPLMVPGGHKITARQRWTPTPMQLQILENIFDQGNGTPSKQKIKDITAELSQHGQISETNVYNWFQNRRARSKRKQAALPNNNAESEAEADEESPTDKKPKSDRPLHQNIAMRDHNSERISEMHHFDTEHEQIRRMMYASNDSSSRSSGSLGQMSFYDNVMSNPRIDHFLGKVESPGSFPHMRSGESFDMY
Method in brief: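 The binding signal is fluorescence intensity per array feature (arbitrary units). Readings came from an Axon 4000B scanner after a washed, 2% BSA-blocked, double-stranded custom Agilent array had been incubated for 1 h at 25 °C with 200 nM protein and 50 µM zinc acetate. The protein was a Ni–NTA-purified transcription factor fused N-terminally to polyhistidine and DsRed, expressed in E. coli BL21-CodonPlus.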

Sequence | binding signal
CGTGATTTTATAGCTGGGAGGTCGCGTTGTGCGCGGCAGGCGGAGTCACCTAGTGCAG | 11700 fluorescence intensity (a.u.)
TTCCTAATTAATGTTGCTGCTAATCTCGACTGCTCTCGCTCGGAGTCACCTAGTGCAG | 36900 fluorescence intensity (a.u.)
TAAATAATCTAGATTAATTCATAGTTGGACAGATATGACCCGGAGTCACCTAGTGCAG | 8420 fluorescence intensity (a.u.)
GAATCCATCTGTTAGCAATCAGGGCATCAGCTACTGTCAGCGGAGTCACCTAGTGCAG | 10100 fluorescence intensity (a.u.)
AATGATAAAACAAATTACAACGAAAACAATGATAATTACTCGGAGTCACCTAGTGCAG | 4270 fluorescence intensity (a.u.)
CCTGTGATTGGTTGGCTCGACGTGATGGGCCCCGTTTGTCCGGAGTCACCTAGTGCAG | 35700 fluorescence intensity (a.u.)
ATAATTTGAGCAGGTCAATCTAAACACGCTGTCAAGGACTCGGAGTCACCTAGTGCAG | 6560 fluorescence intensity (a.u.)
AAGTTCATAATTCTGTTTAATCATTATGCAATTAAGCTCACGGAGTCACCTAGTGCAG | 3710 fluorescence intensity (a.u.)
CCCCACTAATCACCCATCTTCCTAATCAACTTGAGTTCCTCGGAGTCACCTAGTGCAG | 9240 fluorescence intensity (a.u.)
AAGATTGTCATTTGGTTGATTGTTGACCCAGATGAATTAACGGAGTCACCTAGTGCAG | 8040 fluorescence intensity (a.u.)
TTGATAAGACCGTTCACAATTTCTTGAAGCTCGATCTCCCCGGAGTCACCTAGTGCAG | 22600 fluorescence intensity (a.u.)
AAATGATTTGTTTGTGAACTGTTGTCAAGATATAATCAGCCGGAGTCACCTAGTGCAG | 33100 fluorescence intensity (a.u.)
ATTAATGTATACAAAATTGCCTTTACCATGTTATAGATACCGGAGTCACCTAGTGCAG | 12400 fluorescence intensity (a.u.)
CCATCGTAATTGATCGAAAACTGACAACATGTTAGGGTTGCGGAGTCACCTAGTGCAG | 12700 fluorescence intensity (a.u.)
ATAAATTTTACTACCGCAGAATGCTGTTCCGTTTTAAAAGCGGAGTCACCTAGTGCAG | 3270 fluorescence intensity (a.u.)
CATAATTACCAGACATGTTAAATTTAATATATGGATGTATCGGAGTCACCTAGTGCAG | 40800 fluorescence intensity (a.u.)
ATAGCCAATCTAATAGCTAATTTATACAATAGTTACTTACCGGAGTCACCTAGTGCAG | 27500 fluorescence intensity (a.u.)
AATAACTAATTGCATAGATTGTGACTAATTTGCGATGCGACGGAGTCACCTAGTGCAG | 55200 fluorescence intensity (a.u.)
GGTTGTTGATTGCGCACGGATTTCCTCTGTTGTCTTGAGCCGGAGTCACCTAGTGCAG | 40500 fluorescence intensity (a.u.)
TAAACTAGATAAATTGTCTGTGCGTTGTAATGGGTGAACACGGAGTCACCTAGTGCAG | 5600 fluorescence intensity (a.u.)
GTTGGTTAATTGCAATTTAATTGTTGTATTGTAAGAGTCTCGGAGTCACCTAGTGCAG | 56100 fluorescence intensity (a.u.)
TTGATTTACATGCAAATTGCCTTGTTTCGCCTTGAGCTTGCGGAGTCACCTAGTGCAG | 33500 fluorescence intensity (a.u.)
CATTTGATTTGTAGAAAGAATATATAAATTTTAGAGGATTCGGAGTCACCTAGTGCAG | 16100 fluorescence intensity (a.u.)
GTAAGAATTGGCTGTTAGATTGGCTATAAATGAATTGGAGCGGAGTCACCTAGTGCAG | 35700 fluorescence intensity (a.u.)
CTCAATGATGGGCCTTGACCGAAAACGACGCTGTCAGACTCGGAGTCACCTAGTGCAG | 4730 fluorescence intensity (a.u.)
CTTGATGAAACCTTAGGACGTTTTCTTGGGTTCTTGGGAACGGAGTCACCTAGTGCAG | 3200 fluorescence intensity (a.u.)
CAGCAAACTGATAGTTTTGTCACTAAAATTGCTGTTTTCTCGGAGTCACCTAGTGCAG | 8340 fluorescence intensity (a.u.)

Sequence | binding signal
CGTTGACTGCTAATCCAACTTTGCTCTCTTTTCGTTTAGGCGGAGTCACCTAGTGCAG | 49000 fluorescence intensity (a.u.)
TCAATGATTATATTTTCATAATATATTTGTCTTGGGTTGACGGAGTCACCTAGTGCAG | 25600 fluorescence intensity (a.u.)
ATGATTAAATTTGGGAAATACTCTTCTTCGTTATGGTCCTCGGAGTCACCTAGTGCAG | 44200 fluorescence intensity (a.u.)
ATTTGATATAATCCCGTACTAATTGGATTGTATCAAATACCGGAGTCACCTAGTGCAG | 22700 fluorescence intensity (a.u.)
TTAATTGATTAATTTCCTTAACCAAATCTTGGCGACTTGACGGAGTCACCTAGTGCAG | 61200 fluorescence intensity (a.u.)
ACTAAATTTGGACTCCCTCCAAATTCGACTCCGCATTCCACGGAGTCACCTAGTGCAG | 4910 fluorescence intensity (a.u.)
GGTTAAAATCAAAATAATTATAATATAAAATGAAAGGCGTCGGAGTCACCTAGTGCAG | 7490 fluorescence intensity (a.u.)
CAGTAATCAGCCGCTAATCGTGGATTAATATACATCATTACGGAGTCACCTAGTGCAG | 10300 fluorescence intensity (a.u.)
GCTTAATGGGCCCCACCGTGCTATCTCGCTGATTCGGCCCCGGAGTCACCTAGTGCAG | 3940 fluorescence intensity (a.u.)
ACATGACATGAAAATTTCAGAGTTGCAAGCTAACACGAACCGGAGTCACCTAGTGCAG | 3980 fluorescence intensity (a.u.)
TTTTGATCACACCATGATTGATGCACAAATCCATATGAACCGGAGTCACCTAGTGCAG | 36800 fluorescence intensity (a.u.)
GGTAGAGGCAGGTAATTGGGAGGGAATTACTCATTTATTTCGGAGTCACCTAGTGCAG | 5610 fluorescence intensity (a.u.)
TTTAATTGCCCACTAGCAAGGATTTGAACTCGAGGCGTCTCGGAGTCACCTAGTGCAG | 11300 fluorescence intensity (a.u.)
ATTAATAGATACAATTGCCTTCTTAGGACTCTATCCATGTCGGAGTCACCTAGTGCAG | 20900 fluorescence intensity (a.u.)
GCATAACTAATTGTTGTTGCACATATTTTCTTTATAAAGCCGGAGTCACCTAGTGCAG | 15500 fluorescence intensity (a.u.)
TTTGATTTCAACAGATTTATAATGGCATTCTTCCAATTAGCGGAGTCACCTAGTGCAG | 19500 fluorescence intensity (a.u.)
ACATAATTTATATCAAGTTTGCAATTGATTCCCTTTGGATCGGAGTCACCTAGTGCAG | 30900 fluorescence intensity (a.u.)
ATTGATAGATGCTACATCTAGCCAAACTTCTTCCTTTACCCGGAGTCACCTAGTGCAG | 22800 fluorescence intensity (a.u.)
ACGGTAATTTAGCAGTACACCGATTGTCTGGATTAAGTTACGGAGTCACCTAGTGCAG | 9990 fluorescence intensity (a.u.)
TATAATTGCTACGTAAGCGCCACGTCAATGCCATGTCAGACGGAGTCACCTAGTGCAG | 17200 fluorescence intensity (a.u.)
TATCATGGGATAGATGCTAATCACGTTGAAGTGACTAGATCGGAGTCACCTAGTGCAG | 9750 fluorescence intensity (a.u.)
TTATATGATATGATAATCAGTATGGAACGGAGCGAGTAGTCGGAGTCACCTAGTGCAG | 3990 fluorescence intensity (a.u.)
TGTGGACAATGATTAGCACAAACTTATCCTCCGTAATTTGCGGAGTCACCTAGTGCAG | 17100 fluorescence intensity (a.u.)
AAAATAGTTAATACTCAATTAATTATGAGTTAATGGCTTACGGAGTCACCTAGTGCAG | 15300 fluorescence intensity (a.u.)
ACTCCACCACTGTTAATTATTTCTAAAATGGACAAGAAAACGGAGTCACCTAGTGCAG | 3960 fluorescence intensity (a.u.)
TATAATTGATGTACATCGATGATTAATTCTCTAACAGATCCGGAGTCACCTAGTGCAG | 62300 fluorescence intensity (a.u.)
GTGTTAATTTGGCAGCGTGTGCTGTTCACTTGTACATTACCGGAGTCACCTAGTGCAG | 11100 fluorescence intensity (a.u.)
